Experimental data reported in PubChem BioAssay AID686992 (Broad Institute, 2013).
Hit rate of the full screen: of about 260,000 compounds, about 960 (0.37%) were called active. The inconclusive results got no clear call from the source; some entries with a clear call stand among them for comparison.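 Rule for the calls: active = mean E-selectin-positive cell signal at least 10% of the positive control, reached in at least 60% of replicates, without over 20% cell loss; inconclusive = no rule given, readout overlaps actives, possibly toxicity-flagged; inactive = the rest, including those meeting only one limit.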

molecular target: E-selectin (Homo sapiens) (UniProt P16581); assay: inducers of endothelial E-selectin expression – imaging, HUVEC, immunofluorescence imaging, single point, primary screen (AID 686992); conditions: at 7.58 µM, hits give high values, normalized: neutral wells 0, TNF-alpha wells 100;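 note: signal is the percent of cells scored E-selectin positive by PE staining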
How it was run: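 Read-out basis: % PE-positive cells; Test system: HUVEC primary endothelial cells; Technique: immunofluorescence imaging; Dosing: single-point compound dose.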

Sequence of UniProt P16581 (P16581 whole entry, looked up): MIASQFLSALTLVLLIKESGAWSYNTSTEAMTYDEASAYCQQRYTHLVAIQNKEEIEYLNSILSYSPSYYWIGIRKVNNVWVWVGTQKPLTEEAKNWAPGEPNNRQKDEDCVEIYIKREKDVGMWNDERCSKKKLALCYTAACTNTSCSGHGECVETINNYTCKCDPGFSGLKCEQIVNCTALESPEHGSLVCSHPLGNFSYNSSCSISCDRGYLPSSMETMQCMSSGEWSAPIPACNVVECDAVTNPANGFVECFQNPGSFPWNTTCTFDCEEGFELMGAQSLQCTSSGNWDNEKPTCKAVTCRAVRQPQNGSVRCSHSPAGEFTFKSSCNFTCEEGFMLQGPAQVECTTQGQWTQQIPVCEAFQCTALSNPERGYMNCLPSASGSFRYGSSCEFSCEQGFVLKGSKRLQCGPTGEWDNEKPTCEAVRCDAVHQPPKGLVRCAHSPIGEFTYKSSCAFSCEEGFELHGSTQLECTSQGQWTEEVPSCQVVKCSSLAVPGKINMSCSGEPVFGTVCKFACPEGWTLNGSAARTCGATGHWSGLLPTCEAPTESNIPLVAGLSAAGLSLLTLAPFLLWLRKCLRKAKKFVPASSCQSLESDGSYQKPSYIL

SMILES	activation
C[C@H]1CN([C@@H](C)CO)C(=O)c2cc(NC(=O)Nc3ccc(F)cc3)ccc2O[C@@H]1CN(C)Cc1ccc(Oc2ccccc2)cc1	inconclusive: 30.8%
CC(C)Cc1cc(CNC(=O)C2CCC(=O)N(CCc3cccc(F)c3)C2)on1 (stereo unspecified)	inactive: -0.087%
Cc1ccccc1Nc1c(-c2ccccn2)nc2c(C)cccn12	inactive: -0.166%
CC1CCCC=CC2CC(OC(=O)CN(C)C)CC2C(O)C=CC(=O)O1 (stereo unspecified)	inactive: 1.19%
C[C@@H](O)C#Cc1cnc2c(c1)C(=O)N([C@@H](C)CO)C[C@H](C)[C@H](CN(C)CC1CC1)O2	inactive: -0.0565%
COc1ccc(N(CC(=O)N/N=C/c2cc(OC)ccc2OC)S(=O)(=O)c2ccccc2)cc1	inconclusive: 30.2%
Cc1cc(NC(=O)Nc2ccc3c(ccn3C)c2)sn1	inconclusive: 64.9%
CSc1ncnc2c1ncn2CCCNCC(c1ccccc1)c1ccccc1	inconclusive: 64.6%
C[C@H]1CN([C@@H](C)CO)C(=O)Cc2cc(NC(=O)Nc3ccc4c(c3)OCO4)ccc2O[C@H]1CN(C)C(=O)NC1CCCCC1	inactive: -0.268%
Cc1c(CC(=O)NCC(=O)NCC(=O)O)c(=O)oc2cc3oc4c(c3cc12)CCCC4	active: 44.8%
CCN(CC)CCN(C(=O)c1ccc(Br)s1)c1nc2cc3c(cc2s1)OCO3	inconclusive: 54.9%
C=CC[C@@H](CC(=O)N[C@H](CO)Cc1ccccc1)C(=O)N[C@@H](COC(=O)[C@@H](CC=C)CC(=O)OC(C)(C)C)Cc1ccccc1	inactive: 0.208%
C[C@@H](O)C#Cc1cnc2c(c1)C(=O)N([C@@H](C)CO)C[C@H](C)[C@@H](CN(C)CC1CCCCC1)O2	inconclusive: 44.5%
Cc1ccc(S(=O)(=O)/N=C(/Nc2c(C)cccc2C)c2ccccc2)cc1	inconclusive: 45.2%
C[C@H]1CN([C@@H](C)CO)C(=O)Cc2cc(NC(=O)c3ccncc3)ccc2O[C@@H]1CN(C)S(=O)(=O)c1cn(C)cn1	inconclusive: 98.6%
CCN(CC)S(=O)(=O)c1ccc(N2CCOCC2)c(NCC(=O)Nc2ccc(F)cc2)c1	inconclusive: 70.9%
CCOc1ccc(NC(=O)CN(C)C(=O)C(C)N2C(=O)c3ccccc3C2=O)cc1OCC (stereo unspecified)	inconclusive: 77.2%
Cc1noc(C)c1NC(=O)Nc1ccc2c(c1)C(=O)N([C@H](C)CO)C[C@@H](C)[C@H](CN(C)C(=O)Nc1ccc(F)cc1)OCCCC[C@H](C)O2	inactive: -0.192%
COc1cc(C2CC(=O)Oc3c(C(CCN4CCOCC4)c4ccc(N(C)C)cc4)c(OC)cc(OC)c32)cc(OC)c1OC (stereo unspecified)	inactive: -0.0785%
C[C@H]1CN([C@@H](C)CO)C(=O)c2cccc(NS(=O)(=O)c3cccs3)c2O[C@H]1CN(C)C(=O)Nc1ccccc1	inconclusive: 28.6%
CCc1cc2c(nc1CC)CCCN2Cc1ccccc1C(F)(F)F	inactive: 0.86%
COc1ccc(C(=O)Nc2ccc(-c3n[nH]c(=S)o3)cc2)cc1OC	inconclusive: 35.9%
COC(CNC(=O)c1ccc2c(=O)n(Cc3ccc4c(c3)OCO4)c(=S)[nH]c2c1)OC	inconclusive: 39.7%

SMILES	activation
NCc1csc(Nc2cc(Oc3ccccc3)ncn2)n1	inconclusive: 52.4%
C[C@@H]1CN([C@H](C)CO)C(=O)c2cc(NC(=O)C3CCCCC3)ccc2O[C@H]1CN(C)Cc1ccc(C(F)(F)F)cc1	inconclusive: 96.2%
Cc1cccc(-c2cc(N3CCCN(C)CC3)n3nccc3n2)c1	active: 69.1%
N#Cc1ccc(-c2ccc(C3[C@H]4CNC[C@@H]3N4S(=O)(=O)c3ccc(-c4ccccc4)cc3)cc2)cc1 (stereo partly specified)	inactive: 0.137%
CCCCN=CC1=C(O)CC(c2ccccc2)CC1=O (stereo unspecified)	inconclusive: 31.4%
COc1cc2[nH]c(C(=O)NCCc3ccccc3)cc2c(OC)c1OC	inconclusive: 29.5%
CC[C@H](C)[C@H]1CNC(=S)N1CC1CCN(CCC23CC4CC(CC(C4)C2)C3)CC1	inconclusive: 31.2%
CNC(=O)NNC(=O)c1csc(Cc2c(Cl)sc3ccc(Cl)cc23)n1	inconclusive: 39.4%
CCOC(=O)Cn1c(=O)oc2cc(S(=O)(=O)N3CCCc4ccccc43)ccc21	inconclusive: 42.9%
CSCC(=O)Nc1nc(-c2ccc3c(c2)OCCO3)cs1	inconclusive: 33.3%
CC(OC(=O)CCN=C1NS(=O)(=O)c2ccccc21)C(=O)NC1CCCCC1C (stereo unspecified)	inconclusive: 72.5%
CCCCC[C@H]1CCCCC[C@H](O)C[C@@H](O)[C@H](O)/C=C/C(=O)O1	inconclusive: 79.3%
Cc1ccc(C(=O)NCC(=O)Nc2ccncc2)cc1C	active: 204%
CN1C(=O)c2cc(NC(=O)C3CCOCC3)ccc2OC[C@@H]2O[C@H](CC(=O)NCc3ccccc3F)CC[C@H]21	active: 99.5%
C[C@H]1CN([C@@H](C)CO)C(=O)c2cc(NC(=O)CCN3CCOCC3)ccc2O[C@H]1CN(C)S(=O)(=O)c1ccc(Cl)cc1	inconclusive: 116%
O=C(Nc1nnc(C2CC2)s1)c1cccc(S(=O)(=O)N2CC(c3ccccc3)CC2=O)c1 (stereo unspecified)	inconclusive: 52.8%
C[C@@H]1CN([C@H](C)CO)C(=O)c2cc(N(C)C)ccc2O[C@H]1CN(C)Cc1ccc(C(=O)O)cc1	active: 267%
COc1ccccc1NS(=O)(=O)c1ccc2c(c1)CCN2C(=O)CCC(=O)O	inconclusive: 36.1%
CC(C)CNC(=O)c1[nH]c(C(F)(F)F)nc1-c1ccccc1	inactive: -0.136%
CS(=O)(=O)N1CC(=O)N2[C@H](CO)[C@@H](c3ccc(C#CCc4ccccc4)cc3)[C@H]2C1	inactive: -0.0765%
CCCCC(CC)C(=O)Oc1ccc(O)c(C(C)(C)C)c1 (stereo unspecified)	inconclusive: 196%
CNC[C@H]1Oc2cc(C#CC(C)C)ccc2S(=O)(=O)N([C@@H](C)CO)C[C@H]1C	inconclusive: 42.2%
C[C@@H]1CN([C@@H](C)CO)C(=O)Cc2cc(N(C)C)ccc2O[C@H]1CN(C)Cc1ccc(C(=O)O)cc1	inactive: 0.111%
